Self-cleavage data for 167 variants are collected here from the RNAGym collection of RNA variant scans (doi:10.1093/nar/gkz1192).

The source gives no read counts; variants with many changes may rest on few reads.

The labels stand for the following.
B1: CPEB3 Ribozyme (parent)
chain: UAACAGGGGGCCACAGCAGAAGCGUUCACGUCGCAGCCCCUGUCAGAUUCUGGUGAAUCUGCGAAUUCUGCUGUAUAUCUC

The variants in the data set derive from B1. Nature of the data set: self-cleavage, relative activity (ratio to wild type); higher = more cleavage; in vitro, sequencing. Summed up: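 CPEB3 self-cleaving ribozyme mutant libraries were made by rounds of error-prone PCR, barcoded, and transcribed in vitro with T7 RNA polymerase for 5 hours at 37°C. Cleavage occurred during transcription and a 15 min DNase I step before EDTA stop. RNAs were reverse transcribed with template switching and Illumina-sequenced, with DNA sequencing mapping barcodes to variants. Relative activity is the variant's cleaved/total read fraction divided by wild type's (minimum 5 reads), averaged across three batches.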
As for G33C G52C U54G A57G, the self-cleavage was found to be 0.12. In the case of G33A C38U A56U A64G it was 0.16; in that of C34G C40A U43C A64G U76A, 0.12; in that of U31A U51C U78C, 0.34. In the case of U31A U51C C59A U60C it was 0.14; in that of U31C G33A A47G, 0.23.

For A35G A56U U72C U74A, the self-cleavage stood at 0.8. Turning to C34A U41C A47G A64U U66C, the self-cleavage was 0.08. For the variant U31C C32G U60A, the self-cleavage was found to be 0.13.

Consider U31C A47U U51A A64G A65G C71U, for which the self-cleavage stood at 0.21. The figure for G33U A47G U66C is 0.08; for A35G A56G A77U it is 1.35; for C32G C39U C40A U41G A47G it is 0.03. The figure for G33C A35U U41A G70A is 0.07. On to A35G A64U A65G U78A, for which the self-cleavage worked out at 0.53. In the case of U31A U41A U74C it was 0.24; in that of C32U C34U A35G U78C, 0.15. The figure for C34A C40U A64G U66C is 0.09. In the case of C32A U43A A45G A64G U69C U78C it was 0.15; in that of U31C C34G G42A A56U U69A, 0.17; in that of G33C U43C U51A A75U, 0.09. U31C A57G U60A U76C: the self-cleavage was found to be 0.25. In the case of G33U A65G U69A it was 0.17.

For G33A A64G A65G A77G U78A, the self-cleavage stood at 0.1. In the case of G33A U49C U60C A75U it was 0.09; in that of A35C U41C U78C, 0.74. For the variant C32G U48C U54C G73A, the self-cleavage was found to be 0.21. In the case of C32U U51G U76C it was 0.22; in that of U31C U48A U54C U78C, 0.12. In the case of C32U U58A U80C it was 0.17.

For the variant U31C C39A U51C C71G U80C, the self-cleavage was found to be 0.08. The figure for G33A A35U C40A A47G U74C is 0.06. In the case of C32G A57U U72C, the self-cleavage stood at 0.06. Regarding U31C A65C U74C, the self-cleavage came out at 0.17. In the case of U31C A56G U60A U72C it was 0.15.

In the case of U31C U54A A57U, the self-cleavage came to 0.42. In the case of C32A G55C U72A A77U it was 0.05; in that of U31A U72A A75G, 0.79; in that of C34U A35U U80C, 0.25. The figure for U31G U41C G61A A77U is 0.17. In the case of U31C C40U A47G A56G U60C A77G U80C it was 0.04; in that of A35G A64G U69C, 0.96; in that of U31C A35G U41A U67C, 0.14. As for U31C A57G U60A U74A, the self-cleavage is 0.24. In the case of G33A A56G U66C it was 0.15.

In the case of U31G U43C A57G, the self-cleavage was found to be 0.21. The figure for A35C A45G A57G A65G U72C is 0.27. The figure for C32U C40A A65G is 0.17. With C32U A35U A47G U66C U72A A77U, the self-cleavage came out at 0.06.

In the case of U31G A65G U80A, the self-cleavage turned out to be 0.21. In the case of C32U U41A A56G it was 0.17. The figure for U31C C40U A45U U48A U72C U78A is 0.11; for A35C U49G A56U U72G it is 0.77; for U31C C38G C44A it is 0.19. In the case of U31C U41C A45C it was 0.19; in that of G33C U41C U78C, 0.42.

For U31C A35U U41C A45U G53A U54G, the self-cleavage is 0.17.

In the case of G33A C62A U72A, the self-cleavage was 0.07. In the case of U31A U41G U78C it was 0.21; in that of U31A U51A U60C, 0.28. The figure for G33A A56U U60C is 0.05; for U31C U41G A75U it is 0.39. In the case of C32A U69A U72C it was 0.07; in that of U31C U41C G70C, 0.16.

As to C32U G33A A56G A57G, the self-cleavage came out at 0.09. The figure for G33U U69C U74C is 0.13; for A35G A56G C62A U80C it is 0.22; for C32A U60C U78C it is 0.1. The figure for C32U A35U U72A is 0.09; for A35G C39U U41C it is 1.18. For U31A G36C A56C, the self-cleavage came to 0.12. In the case of G33U U60C G61A U74A it was 0.13. In the case of C32U U41A U58C it was 0.18; in that of A35G C40U U78C, 1.24. In the case of C32G A56G A57G U76A it was 0.26.

With C34U U60C U78A, the self-cleavage was found to be 0.06. In the case of U31C A56U U76C it was 0.27. Turning to U31C U41G U66C U76C, the self-cleavage was 0.08. Consider U31C U51A U54C U80A, for which the self-cleavage came out at 1.08. Consider U31C U66C U72A, for which the self-cleavage was 0.44. On to U31C U49C A57C, for which the self-cleavage was determined as 0.12. In the case of U31A U43C U54C U74C, the self-cleavage was 0.45.

For U31C G33A U48C, the self-cleavage is 0.11. The figure for C32U U69C G73A is 0.22; for G33A A56G U78C it is 0.1. In the case of U31C U41A A64G U80A it was 0.07. In the case of U31C U43A U60A it was 0.28; in that of C32A A47U C50U U51G U67C U78C, 0.02. C32A U41C A56U: the self-cleavage came out at 0.09. The figure for C34A U48C A65G A75C U80C is 0.07.

Regarding U31C U54A A56G, the self-cleavage was 0.5. Take G33A A35G U60C U80C: the self-cleavage came to 0.22.

As for G33U U54G U60G U69C U76C, the self-cleavage was found to be 0.08.

Take U31C A45U A64G U66C G70A U78C: the self-cleavage is 0.09.

Take C32A A45G U66C U78C: the self-cleavage was found to be 0.12. The figure for C32A U41C C59U U76C is 0.31.

Turning to U31C A35G U78G, the self-cleavage came out at 1.01. Take U31A U43C A45C U54C A56G A64G: the self-cleavage was 0.

Take U31C C40G U49C A77U: the self-cleavage was found to be 0.19.

Regarding C34U C71U U76C, the self-cleavage turned out to be 0.09. With G33A U43C U54A U74C, the self-cleavage was found to be 0.48. Consider C34G A45G U76A U80A, for which the self-cleavage came out at 0.15. In the case of U31C U51A G61C it was 0.32; in that of G33A U54C A64G, 0.06. The figure for C34G A56U U74C is 0.19; for C32U U41C U72G it is 0.12. In the case of U31A U72A U80A it was 0.64.

U31C A45U G70A: the self-cleavage came to 0.2. The figure for U31C C40A C59A G70A U76A is 0.09; for A35G A47U U78C it is 1.23. For the variant U31C U43C U66G, the self-cleavage was found to be 0.09. Consider U31C U51A U76C, for which the self-cleavage came out at 1.09. Consider A35G C39G U76C A77C, for which the self-cleavage is 0.6.

In the case of C32A A56G A64G U69C, the self-cleavage came to 0.37. In the case of G33A C39U A45U U54C U72C it was 0.2; in that of A35G A47U U60A U78C, 0.74.

Regarding A35C U41C U54C U60A G63A A77U, the self-cleavage came to 0.19. The figure for U31C A45G U54C U67A is 0.12; for U31C C44A A47U U58G U80C it is 0.13. In the case of C32U U54A U72A, the self-cleavage is 0.12. In the case of C32U A57G A77G it was 0.14; in that of U31C G33A C37U, 0.11.

With U31C U54G A56U U74C, the self-cleavage was 0.45. In the case of U31C A35G A64U U69C it was 0.14; in that of U31C A45C A57G U58C, 0.03; in that of U31C G36C G53A A65U U80C, 0.18. The figure for U31C U43A U49C A56C is 0.19; for U31C U48C U49C it is 0.39. In the case of A35G C44U G46C A47G it was 0.13; in that of C32U A47U U67A U72C, 0.22; in that of C34U U48C A56G U76C U80A, 0.05. As for U31C A35G U54G U66C U72C, the self-cleavage is 0.37. As to U31A U41C U51A G63A U74C, the self-cleavage came to 0.56. The figure for A35C U48C A64G is 0.19; for U31C A56G U74C it is 0.89; for U31A U41C U49C it is 0.2. In the case of G33A A47G U69A U80C it was 0.12; in that of U31C U48C U54A, 0.47. The figure for A35G C40U A47G U51A is 1.3; for G33U U54C U78C it is 0.15. Consider U31G A47U G53A, for which the self-cleavage is 0.24. In the case of G33U U41C C50U A56U G63A it was 0.14. The figure for U31C C40A A56U A64U U76C U80C is 0.1. In the case of U31A U48C U67C U69C it was 0.14; in that of U31C U41C A64G C79U, 0.61; in that of U31C A64U U67G, 0.12. Take G33C U60C U76C: the self-cleavage came out at 0.13. In the case of U31C A47G A56C U80A it was 0.15; in that of C32A U43A U69A U74C A75G, 0.11. For the variant C34U U69C U72A, the self-cleavage was 0.36. For U31A U58A A64C U69A U78C, the self-cleavage was determined as 0.1. In the case of A35C A45U C59A A64U U78A U80A it was 0.04.

As for G33A A45G A64G, the self-cleavage was determined as 0.27.

Consider U31C U51A U54G, for which the self-cleavage is 0.48. C32G G52A U72C A77U: the self-cleavage came to 0.16. The figure for G33A U66A A77G U78C is 0.06; for U31C U54C A65G A75U it is 0.27.

Take U31A U48C U69C U72A: the self-cleavage was 0.11. In the case of G33U U51A U76C C81U it was 0.07; in that of U31A U54C U58A, 0.16; in that of U31C C38A U72C, 0.4. For the variant U31C G33A A56G, the self-cleavage is 0.05. The figure for U31C C40U U43C G52A U54C U72C is 0.4; for U31C U49A U54C U69C A77G it is 0.06. Regarding U31C A47G U49A U58C, the self-cleavage was determined as 0.57.

For the variant U31A U43C U58C U78C, the self-cleavage was found to be 0.13. In the case of C32A A64G U67C it was 0.1.
